The results in this text go back to patent CN110606891A (L&L BIOPHARMA CO LTD, dated 2019).

First the molecules themselves.
T1: 鼠CLDN18.2 (mCLDN18.2), claudin-18 isoform A2.1 [Mus musculus], NP_001181850.1 (mouse, UniProt P56857 10-264)
T1 construct: also called 鼠CLDN18.2+细胞; mCLDN18.2+ cell
T1 chain: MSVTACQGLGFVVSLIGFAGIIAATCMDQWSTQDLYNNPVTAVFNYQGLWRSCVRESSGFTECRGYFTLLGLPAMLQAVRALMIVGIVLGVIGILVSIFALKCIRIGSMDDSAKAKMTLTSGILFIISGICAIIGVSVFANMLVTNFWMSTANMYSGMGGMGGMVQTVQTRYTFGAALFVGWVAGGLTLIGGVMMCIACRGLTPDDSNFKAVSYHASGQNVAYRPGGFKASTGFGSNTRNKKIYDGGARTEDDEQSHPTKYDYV

T2: 人CLDN18.1 (hCLDN18.1), claudin-18 isoform 1 precursor [Homo sapiens], NP_057453.1 (human, UniProt P56856 1-261)
T2 construct: No signal peptide limits stated for this entry; also called 人CLDN18.1+ 细胞; hCLDN18.1+ cell
T2 sequence: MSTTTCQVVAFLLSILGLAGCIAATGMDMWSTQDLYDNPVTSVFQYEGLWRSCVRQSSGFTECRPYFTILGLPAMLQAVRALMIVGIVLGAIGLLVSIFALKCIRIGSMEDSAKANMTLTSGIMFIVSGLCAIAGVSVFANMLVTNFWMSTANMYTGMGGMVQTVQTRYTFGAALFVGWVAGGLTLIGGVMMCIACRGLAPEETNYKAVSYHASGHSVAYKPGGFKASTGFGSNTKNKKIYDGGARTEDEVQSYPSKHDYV

B1: 人源化Ab14抗体 (antibody, human IgG1, kappa)
heavy: QVQLVQSGAEVKKPGSSVKVSCKASGYAFSNYLIEWVRQAPGQGLEWMGLINPGSGGTNYNEKFKGKVTITADKSTSTAYMELSSLRSEDTAVYYCARVYYGNSFAYWGQGTLVTVSS[human IgG1 constant region not written out]
light: DIVMTQSPDSLAVSLGERATINCKSSQSLLNSGNNKNYLAWYQQKPGQPPKLLIYWASTRESGVPDRFSGSGSGTDFTLTISSLQAEDVAVYYCQNDYFYPFTFGQGTKLEIKRTVAAPSVFIFPPSDEQLKSGTASVVCLLNNFYPREAKVQWKVDNALQSGNSQESVTEQDSKDSTYSLSSTLTLSKADYEKHKVYACEVTHQGLSSPVTKSFNRGEC
notes: Humanized, hIgG1 (DEL) / kappa; also called L13/H54
B2: Ab24 抗体 (antibody, human IgG1, kappa)
heavy: B1 heavy with S104T
light: B1 light with S32T
notes: hIgG1 (DEL) / kappa; also called L21/H61 DEL
B3: 人源化Ab13抗体 (antibody, human IgG1, kappa)
heavy: B1 heavy with K67R, K74E
light: B1 light
notes: Humanized without back mutations, hIgG1 (DEL) / kappa; also called L13/H53; 全人源化抗体
B4: 人源化Ab6抗体 (antibody, human IgG1, kappa)
heavy: B1 heavy with R38K, M48I, V68A
light: B1 light with N22S
notes: Humanized, light-chain CDR1 humanized (Var3), hIgG1 (DEL) / kappa; also called L12/H51
B5: 人源化Ab12抗体 (antibody, human IgG1, kappa)
heavy: B1 heavy
light: B1 light with N22S
notes: Humanized, hIgG1 / kappa
B6: 人源化Ab15抗体 (antibody, human IgG1, kappa)
heavy: B1 heavy with R38K, M48I, V68A
light: B1 light
notes: Humanized, hIgG1 / kappa

Changes are numbered by the printed parent chain.

As a reminder, the EC50 is the concentration at which the effect is half-maximal. A higher EC50 goes with a need for much substance.

For one experiment, the target named is T1, 鼠CLDN18.2 (mCLDN18.2), claudin-18 …. Kind of experiment: cell ELISA on mCLDN18.2+ cells (Table 23). Background: In an ELISA, binding on a coated surface is turned into a signal by an enzyme label.
B1: the midpoint of the response, the EC50, lay at 0.399 nM and the Emax was 2.39.
For B2, in that order: 0.574 nM and 2.22.
Take B3: the response was half-maximal at 0.422 nM (EC50) and the Emax was 2.37.
The matching figures for B4: 0.594 nM and 2.47.

The next experiment has as its target T2, 人CLDN18.1 (hCLDN18.1), claudin-18 …. Put plainly: cell ELISA on hCLDN18.1+ cells.
B1: the binding result is “no binding”.
Still for that read-out and setting: the same measure for B5: “no binding”.
Still for that read-out and setting: then B6, with “no binding”; and B4, with “no binding”.
